# Source: PubChem BioAssay AID686979 (National Center for Advancing Translational Sciences (NCATS), 2013)
# In all, about 420,000 compounds went through this assay and about 50,000 (12%) were called active. The shares of active, inactive and inconclusive entries below differ from those in the screen. Calls follow the shape of the dose curve; as a rule, active = well fitted inhibition curve with a large enough effect; inconclusive = small, poorly fitted or top-dose-only effect; inactive = flat fitted curve, though single readings scatter. No potency is given beside an inconclusive call; the fits are too rough.
# Assay: qHTS for Inhibitors of human tyrosyl-DNA phosphodiesterase 1 (TDP1): qHTS in cells in presence of CPT; also: nearly all actives have a fitted effect of over 55% in size
# Details: chicken DT40 Tdp1-/-;hTDP1 cells + 20 nM CPT, ATP luminescence, 48 h; activity change, negative = growth inhibition: at 46.2 µM (top of the series) unless noted
# In short: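 Cell growth measured by CellTiter-Glo luminescence after a minimum 48 h, 37 C compound exposure with 20 nM CPT in Tdp1-knockout DT40 cells stably expressing hTDP1, seeded 400/well; qHTS titration format.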
# % is scaled to controls: 0 for no effect and ±100 for the full control effect; potency is read from the fitted curve at half-maximal effect; tags tell the direction and shape of the fitted curve.
Structure (SMILES),Potency,"activity change, negative = growth inhibition"
COC(=O)C1=C(C)N(Cc2ccccc2)C(=NCCN2CCOCC2)N[C@H]1CCc1ccccc1,"inconclusive [inhibitor, single point]",
CCn1c(CNc2ccccc2Cl)nnc1SCCN1CCCCC1,active: 18.4 µM,
COC(=O)C[C@@H]1CC[C@@H](NS(=O)(=O)c2ccc(F)cc2)[C@@H](CO)O1,,inactive: 7.39%
Nc1c(C(=O)NCCN2CCOCC2)c2nc3ccccc3nc2n1CCc1ccccc1F,"inconclusive [inhibitor, single point]",
Cn1c(=O)cc(SCC(=O)N2CCN(c3ccccn3)CC2)c2ccccc21,"inconclusive [inhibitor, partial curve, poor fit]",
CC(=O)c1c(C)[nH]c(C(=O)N2CCN(c3cc(Cl)ccc3C)CC2)c1C,active: 10.3 µM,
CCN1CCN(Cc2ccc(NC(=O)c3ccc(C)c(NC(=O)C[C@@H]4NC(=O)[C@H](Cc5ccccc5)NC4=O)c3)cc2C(F)(F)F)CC1,inactive,
COc1cc2[nH]c(=O)n(CCCCCC(=O)N3CCN(c4ccccn4)CC3)c(=O)c2cc1OC,"inconclusive [inhibitor, partial curve, poor fit]",
O=C(CCCN1C(=O)/C(=C/c2cccs2)SC1=S)Nc1ccccc1O,"inconclusive [inhibitor, single point]",
Nc1ccc(C(=O)C(=O)c2ccc(N)cc2)cc1,,inactive: -6.14%
CCc1ccccc1NC(=O)C1CCN(S(=O)(=O)c2ccccc2)CC1,,inactive: -16.8%
Cc1ncc2c(c1CNC(=O)c1ccccc1F)CCN(C(=O)c1[nH]c3ccc(Cl)cc3c1C)C2,"inconclusive [inhibitor, single point]",
N#Cc1ccccc1OCC(=O)N1N=C(c2cccs2)CC1c1ccco1 (stereo not given),"inconclusive [inhibitor, single point]",
COc1ccc(CNC(=O)c2ccc(Cl)c(S(=O)(=O)N3CCOCC3)c2)cc1OC,active: 9.2 µM,
CCOc1cc(C(=O)NCc2ccc3c(c2)CCN3C(=O)c2ccc(F)cc2)cc(OCC)c1OCC,"inconclusive [inhibitor, single point]",
Cc1cccc(NS(=O)(=O)c2cc3c(cc2C)n(C)c(=O)c(=O)n3C)c1,"inconclusive [inhibitor, single point]",
O=C(NC1CCCC1)c1ccc(CSc2nc3ccncc3n2Cc2cccc(F)c2)cc1,"inconclusive [inhibitor, single point]",
CCCCOc1ccc(C(=O)Nc2ccc3oc(-c4cccnc4)nc3c2)cc1,"inconclusive [inhibitor, partial curve]",
COc1ccc(CN2CCN(C3CCSCC3)CC2CCO)c(C)c1C (stereo not given),active: 18.4 µM,
CC(C)(C)/C(COc1ccccc1[N+](=O)[O-])=N/O,"inconclusive [inhibitor, partial curve, poor fit]",
COc1ccc(OCC(=O)N2CCC(c3nc4ccccc4s3)CC2)cc1,"inconclusive [inhibitor, single point]",
CN(C(=O)CSc1ccccc1C(=O)O)C1CCCCC1,"inconclusive [inhibitor, single point]",
COc1ccc(NC(=O)CN(C)C(=O)c2cc(-c3ccc(C)o3)nc3ccccc23)cc1,"inconclusive [inhibitor, single point]",
CCN1CCN(c2nnc(-c3ccc(C)cc3)c3ccccc23)CC1,,inactive: -12.7%

Structure (SMILES),Potency,"activity change, negative = growth inhibition"
COc1ccc(CNC(=O)C(C)Sc2nc(-c3ccccc3)cc(C(F)(F)F)n2)cc1 (stereo not given),"inconclusive [inhibitor, single point]",
CC(Oc1ccc2c3c(c(=O)oc2c1)CCC3)C(=O)NCc1ccccn1 (stereo not given),"inconclusive [inhibitor, partial curve]",
ON=C1c2ccccc2-c2cc(Br)ccc21,active: 7.31 µM,
CN1CCCN(S(=O)(=O)c2cccc(Cl)c2Cl)CC1,,inactive: -11.2%
COc1ccccc1C(=O)NC(=O)COC(=O)Cc1ccccc1[N+](=O)[O-],"inconclusive [inhibitor, full curve, poor fit]",
CCc1ccccc1-n1c(SCC(=O)N2CCCC2)nnc1-c1ccccn1,"inconclusive [inhibitor, single point]",
Fc1ccccc1-c1n[nH]c(=S)n1CC1CCCO1 (stereo not given),,inactive: 3.3%
CCn1c(NCc2cc(Cl)ccc2O)nc2ccccc21,"inconclusive [inhibitor, single point]",
CN(C)CCCNc1oc(-c2ccccc2Cl)nc1S(=O)(=O)c1ccc(F)cc1,"inconclusive [inhibitor, single point]",
COc1ccc(-n2ncc3c2CC(C)(C)CC3NC(=O)CN2CCOC2=O)cc1 (stereo not given),,inactive: -48.6%
NS(=O)(=O)c1ccc(NC(=O)c2ccc(-c3ccccc3)cc2)cc1,,inactive: -8.93%
O=C(Nc1cc(S(=O)(=O)N2CCOCC2)ccc1O)c1ccc(S(=O)(=O)N2CCCCC2)cc1,"inconclusive [inhibitor, single point]",
CCC(C(=O)OCC(=O)N1CCN(S(=O)(=O)c2ccc(C)cc2C)CC1)c1ccccc1 (stereo not given),"inconclusive [inhibitor, single point]",
COc1ccc(OC)c(N(CC(=O)Nc2ccc3c(c2)OCCO3)S(C)(=O)=O)c1,,inactive: -12.1%
O=C(OCCCCN1C(=O)c2ccccc2C1=O)c1n[nH]c2ccccc12,"inconclusive [inhibitor, single point]",
CC(C)(C)OC(=O)N(Cc1ccccc1)Cc1ccc(OCc2cccc(NC(=O)c3ccccc3)c2)cc1,"inconclusive [inhibitor, single point]",
CC(C)CC(=O)Nc1ccc2c(c1)nc(CCN1CCOCC1)n2C,,inactive: 2.29%
Cc1ccc(CNC(=O)c2ccc3c(c2)c(C)c(C)n3Cc2ccccc2)o1,"inconclusive [inhibitor, single point]",
CC(=O)Nc1cccc(-c2nc3ccccc3n2C(C(=O)NC(C)(C)C)C2CC2)c1 (stereo not given),,inactive: 22.6%
COc1cc2c(cc1OC)-c1cc(OCCN3CCOCC3)nc(=O)n1CC2,active: 23.1 µM,
CCCCOc1ccc(N2C(N)=NC(N)=NC23CCCCC3)cc1,active: 9.2 µM,
CC1Cc2cc(S(=O)(=O)NCCc3ccc(Cl)cc3)ccc2N1C(=O)C1CCC1 (stereo not given),"inconclusive [inhibitor, single point]",
COc1ccccc1Cn1cc(C(=O)c2ccc(Cl)cc2)c(=O)c2ccccc21,active: 23.1 µM,
Cc1c(C(=O)N2CCCCC2C)sc2nc3n(c(=O)c12)CCC3 (stereo not given),,inactive: -10.3%

Structure (SMILES),Potency,"activity change, negative = growth inhibition"
COC(=O)c1cn(NC(=O)C2CCC(C(C)(C)C)CC2)c(=O)c2ccccc12 (stereo not given),,inactive: 0.802%
C[C@@H](CN(C)C[C@H]1C(=O)O[C@@H]2C[C@@]3(C)CCC[C@]4(CO4)C3CC21)[C@H](O)c1ccccc1 (stereo not given in full),,inactive: 13.8% [at 9.04 µM]
CCOC(=O)/C(C#N)=C/c1c[nH]c2ccccc12,,inactive: -27%
Cc1cccc(S(=O)(=O)c2cn(Cc3ccccc3)c3cc(N4CCOCC4)c(F)cc3c2=O)c1,active: 6.51 µM,
CC(C)OCCCNC(=O)c1cn(C)c2ccc(S(=O)(=O)N3CCCCCC3)cc2c1=O,,inactive: 1.66%
COc1ccc(NC(=O)c2ccc(S(=O)(=O)N3CCOCC3)o2)cc1,,inactive: -4.26%
O=C(NCCS(=O)(=O)N1CCc2ccccc2C1)c1ccccc1,"inconclusive [inhibitor, single point]",
Cc1cccc(C(=O)Nc2ccc(-c3nc4ncccc4o3)cc2C)c1,"inconclusive [inhibitor, single point]",
CCOC(=O)C1C(=O)C=C(/C=C/c2ccc(N(C)C)cc2)CC1c1ccccc1 (stereo not given),active: 11.6 µM,
CCOC(=O)c1c(C)[nH]c(C(=O)COC(=O)c2ccc(F)c(S(=O)(=O)N3CCOCC3)c2)c1C,"inconclusive [inhibitor, single point]",
CC1CC(C)CN(S(=O)(=O)c2cc3c4c(c2)CCC(=O)N4CCC3)C1 (stereo not given),"inconclusive [inhibitor, single point]",
CC1CN(CCCOc2ccccc2-c2ccccc2)CC(C)O1 (stereo not given),"inconclusive [inhibitor, single point]",
Cc1ccc(-n2c(N)c(C(=O)NCc3cccnc3)sc2=S)cc1,"inconclusive [inhibitor, single point]",
CC(=O)c1ccccc1OCCCN1CCCCC1,,inactive: -2.52%
CCn1ccc2cc(S(=O)(=O)N3CCC(C(=O)NCCc4ccccc4Cl)CC3)ccc21,"inconclusive [inhibitor, single point]",
COc1ccc(C#Cc2cccc(-c3nc(C(=O)NCCCN4CCOCC4)cc4c3[C@H](CCO)N(S(=O)C(C)(C)C)C4)c2)cc1OC (stereo not given in full),"inconclusive [inhibitor, single point]",
COC(=O)[C@@]12C[C@@H](CC(=O)NCC3CCCCC3)C(=O)N(Cc3ccccc3)C1=CCC(C)(C)C2,"inconclusive [inhibitor, single point]",
Nc1nnc(SCc2ccc(F)cc2)n1-c1ccccc1,,inactive: 0.894%
CC1(C2CCC3C4CCC5CC6(CCC5(C)C4C(=O)CC32C)OCCO6)OCCO1 (stereo not given),"inconclusive [inhibitor, partial curve]",
CCC(CO)Oc1cc(NCc2ccccc2F)c2ncn(C(C)C)c2c1 (stereo not given),active: 20.6 µM,
CC1(C)CC(=O)C=C(c2n[nH]nc2C2CC2)C1,,inactive: 1.64%
COCC(=O)N1CCN(c2cccc(Cl)c2)CC1,,inactive: -23.2%
